Measurements reported in the supplement of paper PMC4967469.
A lower IC50 marks a more sensitive line; fits outside the tested doses are given as limits. For AUC the same curve is integrated over the 256-fold range of doses and scaled to a fraction; values near 1 show little effect. An inferred top dose comes from the curve model; the source does not state it.

compound: C=CC(=O)Nc1cccc(Nc2nc(NC3CCC(N(C)C)CC3)nc3c2ncn3C(C)C)c1 [WZ3105]; test: Viability of human cancer cell lines after 72 h of drug (GDSC screen); conditions: top dose inferred
Procedure: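 Human cancer cell lines in 384-well plates, medium with 10% serum, drug for 72 h over a 256-fold dose range (nine 2-fold or five 4-fold steps up to the top dose). Adherent lines were fixed and stained with the nucleic acid dye Syto60, suspension lines read with resazurin; signal relative to control wells, capped at 0 and 100%. One two-parameter sigmoid per drug and line, fitted in a mixed model over all curves with the slope shared within a line.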

In order of rising AUC:
1. SIG-M5 (acute myeloid leukaemia, suspension, top dose 1.28 µM)  0.49
2. SK-ES-1 (Ewing sarcoma, semi-adherent, top dose 1.28 µM)  0.509
3. SJRH30 (rhabdomyosarcoma, adherent, top dose 1.28 µM)  0.599
4. SF268 (glioma, adherent, top dose 1.28 µM)  0.679
5. SK-MEL-3 (melanoma, adherent, top dose 1.28 µM)  0.696
6. SK-PN-DW (Ewing sarcoma, adherent, top dose 1.28 µM)  0.705
7. SF539 (glioma, adherent, top dose 1.28 µM)  0.738
8. SK-GT-4 (oesophagus, adherent, top dose 1.28 µM)  0.738
9. SK-CO-1 (large intestine, adherent, top dose 1.28 µM)  0.74
10. SK-OV-3 (ovary, adherent, top dose 1.28 µM)  0.74
11. SK-MEL-2 (melanoma, adherent, top dose 1.28 µM)  0.765
12. SK-MEL-30 (melanoma, adherent, top dose 1.28 µM)  0.77
13. SCC-9 (head and neck, adherent, top dose 1.28 µM)  0.812
14. SJSA-1 (bone, adherent, top dose 1.28 µM)  0.814
15. SKN (uterus, adherent, top dose 1.28 µM)  0.829
16. SCC-25 (head and neck, adherent, top dose 1.28 µM)  0.841
17. SK-MEL-28 (melanoma, adherent, top dose 1.28 µM)  0.844
18. SK-MES-1 (lung squamous cell carcinoma, adherent, top dose 1.28 µM)  0.846
19. SK-LU-1 (lung adenocarcinoma, adherent, top dose 1.28 µM)  0.85
20. SK-N-AS (neuroblastoma, adherent, top dose 1.28 µM)  0.851
21. SK-MEL-5 (melanoma, adherent, top dose 1.28 µM)  0.889
22. SH-4 (melanoma, adherent, top dose 1.28 µM)  0.898
23. SK-UT-1 (soft tissue, adherent, top dose 1.28 µM)  0.906
24. SK-LMS-1 (soft tissue, adherent, top dose 1.28 µM)  0.913
25. SCC-15 (head and neck, adherent, top dose 1.28 µM)  0.918
26. SISO (cervix, adherent, top dose 1.28 µM)  0.924
27. SK-HEP-1 (liver, adherent, top dose 1.28 µM)  0.936
28. SK-MEL-1 (melanoma, suspension, top dose 1.28 µM)  0.95
29. SK-MM-2 (myeloma, suspension, top dose 1.28 µM)  0.959
30. SF295 (glioma, adherent, top dose 1.28 µM)  0.974
31. SKG-IIIa (cervix, adherent, top dose 1.28 µM)  0.978
32. SIMA (neuroblastoma, adherent, top dose 1.28 µM)  0.981
33. SK-MG-1 (glioma, adherent, top dose 1.28 µM)  0.982
34. SK-MEL-24 (melanoma, adherent, top dose 1.28 µM)  0.983
35. SF126 (glioma, adherent, top dose 1.28 µM)  0.984
36. SK-N-SH (neuroblastoma, adherent, top dose 1.28 µM)  0.987
37. SCH (stomach, adherent, top dose 1.28 µM)  0.988
38. SK-N-DZ (neuroblastoma, adherent, top dose 1.28 µM)  0.988
39. SK-N-FI (neuroblastoma, adherent, top dose 1.28 µM)  0.988
40. SHP-77 (small cell lung carcinoma, semi-adherent, top dose 1.28 µM)  0.989

First: SCC-9 (head and neck, adherent, top dose 1.28 µM)
Second: SCC-15 (head and neck, adherent, top dose 1.28 µM)
The IC50 of the first is lower: 931 nM for the first, over 1280 nM for the second.

First: SCC-25 (head and neck, adherent, top dose 1.28 µM)
Second: SCH (stomach, adherent, top dose 1.28 µM)
The IC50 of the first is lower: 1070 nM for the first, over 1280 nM for the second.

Compared with “SF126 (glioma, adherent, top dose 1.28 µM)”, “SF268 (glioma, adherent, top dose 1.28 µM)” is lower in IC50: over 1280 nM for the first, 265 nM for the second.

Compared with “SF295 (glioma, adherent, top dose 1.28 µM)”, “SF539 (glioma, adherent, top dose 1.28 µM)” is lower in IC50: over 1280 nM for the first, 350 nM for the second.

“SH-4 (melanoma, adherent, top dose 1.28 µM)” and “SHP-77 (small cell lung carcinoma, semi-adherent, top dose 1.28 µM)” cannot be ordered by IC50: over 1280 nM for the first, over 1280 nM for the second.

Going from “SIG-M5 (acute myeloid leukaemia, suspension, top dose 1.28 µM)” to “SIMA (neuroblastoma, adherent, top dose 1.28 µM)”, the IC50 rises from 75.5 nM to over 1280 nM.

Compared with “SISO (cervix, adherent, top dose 1.28 µM)”, “SJRH30 (rhabdomyosarcoma, adherent, top dose 1.28 µM)” is lower in IC50: over 1280 nM for the first, 150 nM for the second.

First: SJSA-1 (bone, adherent, top dose 1.28 µM)
Second: SK-CO-1 (large intestine, adherent, top dose 1.28 µM)
The IC50 of the first is 2.2-fold higher: 809 nM for the first, 370 nM for the second.

First: SK-ES-1 (Ewing sarcoma, semi-adherent, top dose 1.28 µM)
Second: SK-GT-4 (oesophagus, adherent, top dose 1.28 µM)
The IC50 of the first is 5.4-fold lower: 84.7 nM for the first, 458 nM for the second.

“SK-HEP-1 (liver, adherent, top dose 1.28 µM)” and “SK-LMS-1 (soft tissue, adherent, top dose 1.28 µM)” cannot be ordered by IC50: over 1280 nM for the first, over 1280 nM for the second.

“SK-LU-1 (lung adenocarcinoma, adherent, top dose 1.28 µM)” and “SK-MEL-1 (melanoma, suspension, top dose 1.28 µM)” cannot be ordered by IC50: over 1280 nM for the first, over 1280 nM for the second.

Compared with “SK-MEL-2 (melanoma, adherent, top dose 1.28 µM)”, “SK-MEL-3 (melanoma, adherent, top dose 1.28 µM)” is 1.6-fold lower in IC50: 487 nM for the first, 314 nM for the second.

“SK-MEL-5 (melanoma, adherent, top dose 1.28 µM)” and “SK-MEL-24 (melanoma, adherent, top dose 1.28 µM)” cannot be ordered by IC50: over 1280 nM for the first, over 1280 nM for the second.

Going from “SK-MEL-28 (melanoma, adherent, top dose 1.28 µM)” to “SK-MEL-30 (melanoma, adherent, top dose 1.28 µM)”, the IC50 falls from 889 nM to 513 nM (1.7-fold).

Compared with “SK-MES-1 (lung squamous cell carcinoma, adherent, top dose 1.28 µM)”, “SK-MG-1 (glioma, adherent, top dose 1.28 µM)” is higher in IC50: 1060 nM for the first, over 1280 nM for the second.

Compared with “SK-MM-2 (myeloma, suspension, top dose 1.28 µM)”, “SK-N-AS (neuroblastoma, adherent, top dose 1.28 µM)” is lower in IC50: over 1280 nM for the first, 1220 nM for the second.

“SK-N-DZ (neuroblastoma, adherent, top dose 1.28 µM)” and “SK-N-FI (neuroblastoma, adherent, top dose 1.28 µM)” cannot be ordered by IC50: over 1280 nM for the first, over 1280 nM for the second.

Going from “SK-N-SH (neuroblastoma, adherent, top dose 1.28 µM)” to “SK-OV-3 (ovary, adherent, top dose 1.28 µM)”, the IC50 falls from over 1280 nM to 473 nM.

Compared with “SK-PN-DW (Ewing sarcoma, adherent, top dose 1.28 µM)”, “SK-UT-1 (soft tissue, adherent, top dose 1.28 µM)” is higher in IC50: 310 nM for the first, over 1280 nM for the second.

Going from “SKG-IIIa (cervix, adherent, top dose 1.28 µM)” to “SKN (uterus, adherent, top dose 1.28 µM)”, the IC50 falls from over 1280 nM to 1040 nM.
